Laboratory results published in the supplement of paper PMC3334620.
Whole data set: some 33,000 sequences, median “E-score (-0.5 to 0.5)” near -0.054, cut for the highest 2% near 0.35. The list shows a part of the results.

biological target: T1, Stb5 (UniProt P38699); assay: PBM E-score (8-mer binding enrichment) (E-score (-0.5 to 0.5)); higher = stronger / more preferred TF binding; most listed sequences are background and not binding sites; settings: protein concentration: 200 nM; construct: GST-full length
T1 sequence: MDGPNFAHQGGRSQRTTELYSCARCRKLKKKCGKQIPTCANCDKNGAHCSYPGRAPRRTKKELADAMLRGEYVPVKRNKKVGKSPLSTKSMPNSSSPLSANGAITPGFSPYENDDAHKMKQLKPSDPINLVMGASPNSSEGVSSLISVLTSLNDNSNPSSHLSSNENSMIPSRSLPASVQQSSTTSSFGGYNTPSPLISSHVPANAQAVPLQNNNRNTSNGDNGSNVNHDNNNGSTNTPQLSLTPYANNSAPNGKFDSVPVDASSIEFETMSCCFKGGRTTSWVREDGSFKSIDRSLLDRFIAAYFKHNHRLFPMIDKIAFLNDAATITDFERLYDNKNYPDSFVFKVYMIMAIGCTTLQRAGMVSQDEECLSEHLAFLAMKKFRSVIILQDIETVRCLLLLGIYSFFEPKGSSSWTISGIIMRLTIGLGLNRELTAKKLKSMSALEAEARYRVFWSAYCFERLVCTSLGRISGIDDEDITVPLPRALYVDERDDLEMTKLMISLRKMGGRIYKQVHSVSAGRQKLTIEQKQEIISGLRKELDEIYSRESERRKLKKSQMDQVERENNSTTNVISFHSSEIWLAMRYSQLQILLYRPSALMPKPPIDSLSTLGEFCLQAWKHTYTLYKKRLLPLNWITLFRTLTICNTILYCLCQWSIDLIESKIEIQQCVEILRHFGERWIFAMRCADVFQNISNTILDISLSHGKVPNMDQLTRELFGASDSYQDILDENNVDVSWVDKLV
Procedure: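 Universal 'all 10-mer' protein binding microarrays (Agilent AMADID 015681) probed with GST-tagged S. cerevisiae TFs (full-length or DBD) made by in vitro transcription/translation (PURExpress), about 100-200 nM. Bound TF was detected with fluorescent anti-GST. Each ungapped 8-mer (which stands for itself and its reverse complement) is scored by the PBM enrichment score (E-score), a modified Wilcoxon-Mann-Whitney statistic from -0.5 to +0.5, computed with the Universal PBM Analysis Suite. Scale: above 0.35 generally sequence-specific binding.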

Row | Sequence | PBM E-score
1 | CTAGGGAG | -0.225
2 | CTAGAACA | 0.0985
3 | CCGTAAGA | 0.238
4 | ACCTTAGC | -0.196
5 | GGGCCCCC | 0.0572
6 | TGAGCGAA | 0.0158
7 | AACCCCGA | 0.473
8 | AGGGTCAT | -0.253
9 | AGCGTACG | 0.0455
10 | CTGGCTGA | -0.144
11 | GTGTAGTA | 0.064
12 | AACGTCGT | -0.0144
13 | TCAACCGA | -0.00247
14 | CAGTATGG | -0.119
15 | AAACTGGA | -0.0551
16 | CATTACAA | -0.122
17 | AAACATAT | -0.00796
18 | CAGCGTAA | -0.168
19 | CCACAGTC | -0.22
20 | CGATCGTC | 0.119
21 | AAGTGCCA | -0.182
22 | GGATGCAA | -0.0713
23 | CGAAAAAC | 0.0935
24 | GTTGTGGA | -0.19
25 | CCCGTCCC | 0.298

Row | Sequence | PBM E-score
26 | GTAACTGA | -0.31
27 | CGAGCATA | -0.142
28 | CAAGGCTC | -0.243
29 | GAACTGGC | -0.0133
30 | ACTACGCG | 0.0657
31 | AGACCACA | -0.0795
32 | CCGAATCG | 0.136
33 | AGAAGAGC | -0.128
34 | AAACGTCG | 0.173
35 | AATTATGT | -0.0796
36 | AGAGACGA | -0.0973
37 | ACCGTTCC | 0.273
38 | CCGTGAGC | 0.196
39 | CACCAGTA | -0.15
40 | GCAGTGGC | -0.117
41 | ATAGGGGC | -0.0427
42 | ACTGGCGC | -0.0545
43 | CCCTTCTA | -0.218
44 | CGCGGACG | 0.27
45 | GGCACAGA | -0.0495
46 | AGCCGCCT | 0.0174
47 | ACTCTGAT | 0.0813
48 | ACGCTTTG | 0.013
49 | GCTATCCC | 0.0835
50 | AGCGTAAG | -0.00496

Row | Sequence | PBM E-score
51 | AGGACCAG | -0.23
52 | ATCACGAG | -0.24
53 | AAGCAAAT | -0.191
54 | CAGCCTAG | -0.289
55 | ATCGTTGC | -0.147
56 | ATTGAACG | -0.00043
57 | CTGGTAAA | -0.0707
58 | ATGACTAC | -0.223
59 | CTAAGCGA | -0.0741
60 | GCGCAGCA | 0.0948
61 | GCTCCTAC | 0.0251
62 | CCAGTAAG | -0.113
63 | AGCTAGGC | 0.0259
64 | ACGTCCCA | -0.36
65 | CATGTCGC | 0.0189
66 | GGTACGGA | 0.0961
67 | AGGGTAGA | -0.181
68 | ACTGCGAA | -0.0835
69 | ACAAGATA | -0.171
70 | CGCCAACG | 0.131
71 | AGCCCCCG | 0.173
72 | GGACGGAA | 0.133
73 | GGTTGCCA | -0.0319
74 | GCAGCGAC | -0.0206
75 | AGTGCTAT | -0.213

Row | Sequence | PBM E-score
76 | CAATGAGG | -0.338
77 | CAATAGGC | 0.0353
78 | CTGTATGC | -0.06
79 | GGGGGGAA | -0.0531
80 | GAAAGATC | -0.00696
81 | GAGGGGCA | -0.157
82 | GGAAGGTA | 0.0413
83 | GAGTAACC | -0.0272
84 | CCACCTCG | 0.0784
85 | AAAAGTAA | -0.129
86 | ACTGCCTA | -0.203
87 | ACATCCAG | -0.275
88 | AGGTGAAT | 0.0734
89 | CGATAGCC | 0.0261
90 | CACGACGG | 0.168
91 | CCGAAAGG | 0.163
92 | CCTGTTCG | -0.199
93 | GGGATTCA | 0.0852
94 | AACTTCAT | -0.185
95 | TGTATGAA | 0.0366
96 | CTCGTATA | -0.154
97 | CCAATGCA | -0.189
98 | AGAGAAAC | -0.117
99 | AGAACCCC | 0.219
100 | TAACGTCA | -0.278

Row | Sequence | PBM E-score
101 | CTGGGGCA | -0.314
102 | GTAAACGA | -0.0384
103 | GCGAGAAA | -0.225
104 | GTGACTGA | -0.313
105 | AACCGGCC | 0.264
106 | AAGGCGCA | -0.0282
107 | GCGGTGTA | 0.421
108 | CTAGAAAG | -0.0959
109 | AGATACCT | -0.0664
110 | TGAATGAA | -0.0678
111 | CGACTTTA | 0.022
112 | ATATCAGC | 0.215
113 | GGGCAATA | 0.185
114 | AACGTGTA | -0.181
115 | AAAGACGG | 0.168
116 | CACTCAAA | -0.0629
117 | CGGGCAGA | 0.223
118 | AGAAGACG | -0.0553
119 | GAACAACA | -0.137
120 | CTTTCTAC | -0.0885
121 | CAGTGCGG | 0.23
122 | CTAAACTC | 0.198
123 | TCATTACA | -0.0362
124 | ATTACATA | -0.322
125 | AGATTACT | -0.0148

Row | Sequence | PBM E-score
126 | AACTGGAA | -0.1
127 | CGCCTTCA | -0.00421
128 | CCGCTTGC | 0.285
129 | CATCAATC | -0.082
130 | GAGGAACC | -0.105
131 | AGTGTGTG | -0.332
132 | ACGCACCT | -0.0301
133 | AATATGGA | -0.115
134 | CACCCCGC | 0.394
135 | ATACAGCC | 0.098
136 | ATTGAGGC | -0.099
137 | CATGGTTC | -0.0461
138 | CTTGTGAC | -0.0707
139 | CCATACCA | -0.0288
140 | ATGGACCG | 0.165
141 | CAGGTTCC | -0.142
142 | AGCTCAGA | -0.165
143 | ACTTGGCC | -0.0112
144 | GGTCTTAC | 0.273
145 | CCAGGAAA | -0.207
146 | AGAACGCG | 0.0577
147 | CGCGCGAA | -0.051
148 | ACCATCTG | 0.0158
149 | CCTTCCTA | -0.246
150 | CCACTGTC | -0.366

Row | Sequence | PBM E-score
151 | AGTTAAAG | -0.131
152 | TGCTAGCA | 0.0477
153 | GCACACTA | -0.2
154 | CGCTTCTA | 0.135
155 | CCCGAAGG | 0.0865
156 | AAGTGCGA | 0.187
157 | CCGCCTTC | 0.167
158 | GCGTTTAA | 0.248
159 | ACCGTGGC | 0.0612
160 | ATGATGAC | -0.101
161 | AATCAAAG | -0.207
162 | CAGGGCTA | -0.0647
163 | AACACATG | -0.349
164 | CTCAGCAA | -0.11
165 | AATTAAAG | -0.0529
166 | AGTCTATA | -0.0672
167 | ACATTCCG | 0.0624
168 | GACGGCGA | 0.243
169 | AACGAAGT | -0.268
170 | AAGCGAAA | -0.179
171 | AAATGCGC | 0.151
172 | GTGCAATA | -0.0549
